Experimental data reported in the supplement of paper PMC3334620.
The full ranking holds about 33,000 sequences; the median of “E-score (-0.5 to 0.5)” is about -0.017, and the highest 2% start at about 0.3. Some of the results follow.

Target: T1, Sut1 (UniProt P53032)
T1 sequence: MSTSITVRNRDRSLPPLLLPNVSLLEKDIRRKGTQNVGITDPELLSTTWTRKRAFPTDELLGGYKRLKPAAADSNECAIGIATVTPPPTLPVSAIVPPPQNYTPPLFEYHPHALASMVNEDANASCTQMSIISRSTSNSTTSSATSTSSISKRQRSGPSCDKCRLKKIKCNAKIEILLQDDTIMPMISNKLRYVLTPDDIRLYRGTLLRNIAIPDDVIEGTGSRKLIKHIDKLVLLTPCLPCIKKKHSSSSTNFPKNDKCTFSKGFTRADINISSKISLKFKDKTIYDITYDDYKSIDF
Test: PBM E-score (8-mer binding enrichment) (E-score (-0.5 to 0.5)); higher = stronger / more preferred TF binding; most listed sequences are background and not binding sites
Settings: protein concentration: 200 nM; construct: GST-full length
In short: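 Each ungapped eight-base word and its reverse complement, pooled, received an E-score from the Universal PBM Analysis Suite. Underlying scans, normalised with masliner, recorded fluorescent anti-GST bound to GST-tagged yeast transcription factors. These were applied at about 100-200 nM to universal all-10-mer Agilent arrays double-stranded by primer extension.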

| Sequence | PBM E-score |
| --- | --- |
| GCGCATGA | -0.282 |
| ATCGCACA | 0.0222 |
| ACCTACGT | -0.0888 |
| CAACCCTG | -0.163 |
| CTACGAAG | -0.207 |
| GGGACTTA | -0.0858 |
| CAATGTTC | -0.00988 |
| AGCATCCG | -0.0507 |
| ATGCTCTG | -0.197 |
| CCTCTCGA | -0.303 |
| ACGGCGCC | -0.262 |
| GGATTGTA | 0.128 |
| AACGTGGG | -0.302 |
| TCCGATAA | 0.387 |
| AGTGGATA | 0.0737 |
| GAGTATGA | 0.114 |
| ACTATTGA | 0.209 |
| TGCACTAA | 0.148 |
| CGGGGGAG | -0.258 |
| AGCACATC | 0.0169 |
| AGATTCGG | 0.201 |
| GACGGATA | 0.0131 |

| Sequence | PBM E-score |
| --- | --- |
| ATCGCTTA | -0.138 |
| GTCGTTAA | 0.0288 |
| CATTATGA | 0.0195 |
| CACTAGTG | 0.0135 |
| AGCCCCTC | -0.199 |
| CCCAAAAC | 0.0566 |
| CCCCTACG | -0.358 |
| CGCACTAC | -0.148 |
| CCAGCTTC | -0.137 |
| CAAGGATA | 0.0528 |
| ACCACTTG | -0.0333 |
| CACGGTAG | -0.103 |
| TAATTATA | 0.349 |
| CTGAATAA | 0.165 |
| GGCGAAGA | -0.0451 |
| AGACGGGG | -0.082 |
| ATAACCCC | -0.0245 |
| CCGTGTAC | 0.147 |
| CAGTACTA | 0.0282 |
| ATCGGGGC | -0.147 |
| ACCAAGGA | 0.0457 |
| ACTCTCCC | -0.0254 |

| Sequence | PBM E-score |
| --- | --- |
| AATAGACT | -0.0415 |
| GAGCGATC | -0.128 |
| TCGGCAAA | 0.102 |
| ATCGCACG | -0.165 |
| GACATAGC | 0.0267 |
| AAGCGCGA | 0.00168 |
| ATCAGTTG | 0.0304 |
| GATCTTGC | 0.0765 |
| CGACCAGA | -0.076 |
| CTTCCATC | -0.0797 |
| CGTCCGAC | -0.14 |
| CATCCCCC | -0.286 |
| GGAACGAC | -0.147 |
| GACGAAGC | -0.0148 |
| CTAATAGA | 0.0839 |
| GCCGCGAA | -0.113 |
| ATATAGTA | 0.276 |
| CTCGAAGC | -0.0293 |
| CGAAATAG | 0.0281 |
| ACCAGGAG | -0.183 |
| ACAAGACC | -0.138 |
| AAGTAGAA | 0.145 |

| Sequence | PBM E-score |
| --- | --- |
| AGAGGTAC | -0.28 |
| TCTGCGCA | -0.0828 |
| CTCATAAG | -0.00665 |
| CCTATATC | 0.01 |
| AATTCCTC | -0.14 |
| GTCGTGGA | -0.197 |
| GATTTTAC | 0.166 |
| ACTTGAGC | -0.227 |
| ACATGAGT | -0.074 |
| AACCAAGA | 0.0648 |
| AAGGGATA | -0.0268 |
| CGACAACC | -0.231 |
| GCAAGCGA | -0.157 |
| AAAGAGCT | -0.0565 |
| AGTTGAAT | 0.252 |
| CAGCTCGC | -0.204 |
| CTGAAAGC | 0.0793 |
| ATGGACTG | 0.0002 |
| TCCACCAA | 0.00651 |
| AATTTCTC | 0.238 |
